# From the supplement of paper PMC8728848
# The list shows a part of the results.
# B1: Eosinophil cationic protein (ECP) (Homo sapiens), P12724 (protein)
# chain: MVPKLFTSQICLLLLLGLMGVEGSLHARPPQFTRAQWFAIQHISLNPPRCTIAMRAINNYRWRCKNQNTFLRTTFANVVNVCGNQSIRCPHNRTLNNCHRSRFRVPLLHCDLINPGAQNISNCTYADRPGRRFYVVACDNRDPRDSPRYPVVPVHLDTTI
# Legend:
# Assay in all cases: glycan array binding signal (z-score within array); higher = stronger binding
# Settings in all cases: glycan notation: IUPAC condensed, linker removed
# [1] = target: Fuc(a1-2)Gal(b1-4)[Fuc(a1-3)]GlcNAc
# Outline: (§1)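 Columns mapping to the same glycan were averaged after glycan names were converted to IUPAC-condensed notation. The data come from 3228 arrays in the Consortium for Functional Glycomics database, limited to those with an available protein sequence. Binding is reported as a within-array Z-score averaged across arrays of one protein sequence and across linkers.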
# [2] = target: Fuc(a1-2)Gal(b1-4)[Fuc(a1-3)]GlcNAc(b1-2)Man(a1-3)[Fuc(a1-2)Gal(b1-4)[Fuc(a1-3)]GlcNAc(b1-2)Man(a1-6)]Man(b1-4)GlcNAc(b1-4)GlcNAc
# Outline: as §1
# [3] = target: Fuc(a1-2)Gal(b1-4)[Fuc(a1-3)]GlcNAc(b1-2)[Fuc(a1-2)Gal(b1-4)[Fuc(a1-3)]GlcNAc(b1-4)]Man(a1-3)[Fuc(a1-2)Gal(b1-4)[Fuc(a1-3)]GlcNAc(b1-2)Man(a1-6)]Man(b1-4)GlcNAc(b1-4)GlcNAc
# Outline: as §1
# [4] = target: Fuc(a1-2)Gal(b1-4)[Fuc(a1-3)]GlcNAc(b1-3)Gal(b1-4)[Fuc(a1-3)]GlcNAc
# Outline: as §1
# [5] = target: Fuc(a1-2)Gal(b1-4)[Fuc(a1-3)]GlcNAc(b1-3)Gal(b1-4)[Fuc(a1-3)]GlcNAc(b1-3)Gal(b1-4)[Fuc(a1-3)]GlcNAc
# Outline: as §1
# [6] = target: Fuc(a1-2)Gal(b1-4)[Fuc(a1-3)]GlcNAc(b1-3)GalNAc
# Outline: as §1
# Fuc(a1-2)Gal6S(b1-4)Glc = target: Fuc(a1-2)Gal6S(b1-4)Glc
# Outline: as §1
# [7] = target: Fuc(a1-2)Gal6S(b1-4)Glc6S
# Outline: as §1
# [8] = target: Fuc(a1-2)Gal6S(b1-4)GlcNAc
# Outline: as §1
# Fuc(a1-2)[Gal(a1-3)]Gal = target: Fuc(a1-2)[Gal(a1-3)]Gal
# Outline: as §1
# [9] = target: Fuc(a1-2)[Gal(a1-3)]Gal(b1-3)GalNAc
# Outline: as §1
# [10] = target: Fuc(a1-2)[Gal(a1-3)]Gal(b1-3)GlcNAc
# Outline: as §1
# [11] = target: Fuc(a1-2)[Gal(a1-3)]Gal(b1-3)GlcNAc(b1-2)Man(a1-3)[Fuc(a1-2)[Gal(a1-3)]Gal(b1-3)GlcNAc(b1-2)Man(a1-6)]Man(b1-4)GlcNAc(b1-4)GlcNAc
# Outline: as §1
# [12] = target: Fuc(a1-2)[Gal(a1-3)]Gal(b1-3)GlcNAc(b1-2)Man(a1-3)[Fuc(a1-2)[Gal(a1-3)]Gal(b1-3)GlcNAc(b1-2)Man(a1-6)]Man(b1-4)GlcNAc(b1-4)[Fuc(a1-6)]GlcNAc
# Outline: as §1
# [13] = target: Fuc(a1-2)[Gal(a1-3)]Gal(b1-3)GlcNAc(b1-3)GalNAc
# Outline: as §1
# [14] = target: Fuc(a1-2)[Gal(a1-3)]Gal(b1-4)Glc
# Outline: as §1
# [15] = target: Fuc(a1-2)[Gal(a1-3)]Gal(b1-4)GlcNAc
# Outline: as §1
# [16] = target: Fuc(a1-2)[Gal(a1-3)]Gal(b1-4)GlcNAc(b1-2)Man(a1-3)[Fuc(a1-2)[Gal(a1-3)]Gal(b1-4)GlcNAc(b1-2)Man(a1-6)]Man(b1-4)GlcNAc(b1-4)GlcNAc
# Outline: as §1
# [17] = target: Fuc(a1-2)[Gal(a1-3)]Gal(b1-4)GlcNAc(b1-2)Man(a1-3)[Fuc(a1-2)[Gal(a1-3)]Gal(b1-4)GlcNAc(b1-2)Man(a1-6)]Man(b1-4)GlcNAc(b1-4)[Fuc(a1-6)]GlcNAc
# Outline: as §1
# [18] = target: Fuc(a1-2)[Gal(a1-3)]Gal(b1-4)GlcNAc(b1-3)GalNAc
# Outline: as §1
# [19] = target: Fuc(a1-2)[Gal(a1-3)]Gal(b1-4)[Fuc(a1-3)]Glc
# Outline: as §1
# [20] = target: Fuc(a1-2)[Gal(a1-3)]Gal(b1-4)[Fuc(a1-3)]GlcNAc
# Outline: as §1
# [21] = target: Fuc(a1-2)[Gal(a1-3)]Gal(b1-4)[Fuc(a1-3)]GlcNAc(b1-3)GalNAc
# Outline: as §1
# [22] = target: Fuc(a1-2)[Gal(a1-4)]Gal(b1-4)GlcNAc
# Outline: as §1
# [23] = target: Fuc(a1-2)[GalNAc(a1-3)]Gal
# Outline: as §1
# [24] = target: Fuc(a1-2)[GalNAc(a1-3)]Gal(b1-3)GalNAc(a1-3)[Fuc(a1-2)]Gal(b1-4)GlcNAc
# Outline: as §1
# [25] = target: Fuc(a1-2)[GalNAc(a1-3)]Gal(b1-3)GlcNAc
# Outline: as §1
# [26] = target: Fuc(a1-2)[GalNAc(a1-3)]Gal(b1-3)GlcNAc(b1-2)Man(a1-3)[Fuc(a1-2)[GalNAc(a1-3)]Gal(b1-3)GlcNAc(b1-2)Man(a1-6)]Man(b1-4)GlcNAc(b1-4)GlcNAc
# Outline: as §1
# [27] = target: Fuc(a1-2)[GalNAc(a1-3)]Gal(b1-3)GlcNAc(b1-2)Man(a1-3)[Fuc(a1-2)[GalNAc(a1-3)]Gal(b1-3)GlcNAc(b1-2)Man(a1-6)]Man(b1-4)GlcNAc(b1-4)[Fuc(a1-6)]GlcNAc
# Outline: as §1
# [28] = target: Fuc(a1-2)[GalNAc(a1-3)]Gal(b1-3)GlcNAc(b1-3)GalNAc
# Outline: as §1
binder,measurement,setting,value
B1,glycan array binding signal (z-score),[1],0.112
same,glycan array binding signal (z-score),[2],0.735
same,glycan array binding signal (z-score),[3],0.28
same,glycan array binding signal (z-score),[4],0.014
same,glycan array binding signal (z-score),[5],-0.094
same,glycan array binding signal (z-score),[6],2.14
same,glycan array binding signal (z-score),Fuc(a1-2)Gal6S(b1-4)Glc,-0.036
same,glycan array binding signal (z-score),[7],1.17
same,glycan array binding signal (z-score),[8],-0.39
same,glycan array binding signal (z-score),Fuc(a1-2)[Gal(a1-3)]Gal,-0.178
same,glycan array binding signal (z-score),[9],0.048
same,glycan array binding signal (z-score),[10],0.103
same,glycan array binding signal (z-score),[11],0.257
same,glycan array binding signal (z-score),[12],0.234
same,glycan array binding signal (z-score),[13],-0.146
same,glycan array binding signal (z-score),[14],-0.348
same,glycan array binding signal (z-score),[15],-0.144
same,glycan array binding signal (z-score),[16],0.306
same,glycan array binding signal (z-score),[17],-0.023
same,glycan array binding signal (z-score),[18],0.505
same,glycan array binding signal (z-score),[19],-0.455
same,glycan array binding signal (z-score),[20],0.847
same,glycan array binding signal (z-score),[21],0.524
same,glycan array binding signal (z-score),[22],-0.421
same,glycan array binding signal (z-score),[23],-0.298
same,glycan array binding signal (z-score),[24],-0.464
same,glycan array binding signal (z-score),[25],-0.57
same,glycan array binding signal (z-score),[26],-0.506
same,glycan array binding signal (z-score),[27],-0.378
same,glycan array binding signal (z-score),[28],1.06
